PubChem BioAssay AID504706 (National Center for Advancing Translational Sciences (NCATS), 2011)
Out of some 320,000 compounds screened, about 200 (0.062%) were called active. Inconclusive results, whose numbers are uncertain, are shown with a selection of clear calls. The call rests on the fitted dose curve; in most records, active means well fitted activation curve with a large enough effect; inconclusive means small, poorly fitted or top-dose-only effect; inactive means no such curve, though single readings can be large or run the other way. Potencies of inconclusive entries are left out as doubtful fits.
Potency means the concentration at half of the fitted maximal effect; tags describe the fitted curve by direction and shape.

Test: qHTS assay for re-activators of p53 using a Luc reporter; further: nearly all actives have a fitted effect of over 45% in size
Conditions: H1299 p53-A138V BP100-luciferase reporter, luminescence, 24 h; series mostly up to 92.2 µM
Procedure, shortened: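 H1299 (p53-null), stable ts p53-A138V + BP100-Luc; 1000 cells/well, Opti-MEM/10% FBS; cpd 4 pt, 1:5; 24 h, 37 deg C, 5% CO2; detection reagent 10 min RT; luminescence.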
With COc1cc(-c2noc(-c3ccco3)n2)cc(OC)c1OC the Potency was “inactive”.
In the case of O=C(Nc1ccccc1OC(F)F)c1ccc(F)cc1, the Potency is reported as inconclusive [activator, single point].
With O=C(Cc1ccc([N+](=O)[O-])cc1)N1N=C(C2CC2)CC1(O)C(F)(F)F (centres undefined) the Potency was “inactive”.
In the case of CCC(=O)N1CCc2cc(S(=O)(=O)CCC(=O)Nc3nc(C)cs3)ccc21, the Potency is reported as inconclusive [activator, partial curve, poor fit].
For Fc1cccc(CSc2nc3ccncc3[nH]2)c1, the Potency was inconclusive [activator, partial curve].
In the case of CCc1ccc(NCc2nc(-c3ccccc3)no2)cc1, the Potency is reported as inconclusive [activator, partial curve, poor fit].
In the case of COC(=O)c1ccccc1NC(=O)CSc1nnc(-c2cccnc2)o1, the Potency is reported as inconclusive [activator, full curve, poor fit].
In the case of CC1CCN(C(=O)c2ccc(-c3ccccc3Cl)o2)CC1, the Potency is reported as inconclusive [activator, full curve, poor fit].
For COc1ccc(CNC(=O)CCSc2ccc(F)cc2)cc1OC, the Potency was “inactive”.
In the case of O=C(CN1C(=O)/C(=C/c2ccccc2)SC1=S)N1CCN(CCc2ccccn2)CC1, the Potency is reported as inconclusive [activator, partial curve, poor fit].
In the case of O=c1c2ccccc2[nH]c(=S)n1CCN1CCc2ccccc2C1, the Potency is reported as “inactive”.
In the case of Cc1ccccc1CN1C(=O)C(O)(CC(=O)c2ccncc2)c2ccccc21 (centres undefined), the Potency is reported as inconclusive [activator, single point].
For O=C(Nc1nnc(-c2ccco2)o1)c1cccc(N2C(=O)CCC2=O)c1, the Potency was “inactive”.
In the case of Cc1cc(NC(=O)c2c(F)c(F)c(F)c(F)c2F)no1, the Potency is reported as inconclusive [activator, partial curve, poor fit].
For CCCCCCSc1nsc(NC(=O)CC(C)C)n1, the Potency was inconclusive [activator, partial curve, poor fit].
In the case of CCOc1ccccc1NC(=S)N1CCN(c2ccc(OC)cc2)CC1, the Potency is reported as “inactive”.
With CCc1ccc(C(=O)Cn2ncc(Cl)c(Cl)c2=O)cc1 the Potency was “inactive”.
With CCOC(=O)c1sc(NC(=O)CSc2n[nH]c(-c3ccc(Cl)cc3Cl)n2)c(C#N)c1C the Potency was “inactive”.
In the case of C/C(=N\NC(=S)Nc1c(C)cccc1C)c1cc2ccccc2o1, the Potency is reported as inconclusive [activator, partial curve, poor fit].
With CN(C)CCCN(C(=O)c1cc(Cl)sc1Cl)c1nc2cc3c(cc2s1)OCO3 the Potency was inconclusive [activator, single point].
With O=C(c1ccc(CSc2nc3ccncc3[nH]2)cc1)N1CCCCC1 the Potency was inconclusive [activator, partial curve, poor fit].
In the case of COc1ccc(NC(=O)c2noc(C(C)C)c2[N+](=O)[O-])cc1, the Potency is reported as inconclusive [activator, partial curve, poor fit].
For O=[N+]([O-])c1ccc2c(c1)nc1n2CCN(C2CCCCC2)C1, the Potency was “inactive”.
For c1ccc2cc3[nH]c(CN4CCCCC4)nc3cc2c1, the Potency was inconclusive [activator, single point].
In the case of Cn1c(C(=O)Nc2ccc3c(c2)OCO3)cc2c(=O)n(C)c3ccccc3c21, the Potency is reported as “inactive”.
For CCOC(=O)Cc1csc(NC(=O)c2ccc(F)cc2)n1, the Potency was “inactive”.
For CC(=O)Nc1ccc(-c2cn3ccsc3n2)cc1, the Potency was inconclusive [activator, partial curve, poor fit].
For CN(C)S(=O)(=O)c1cc(NC(=O)COC(=O)/C=C/c2ccco2)ccc1Cl, the Potency was “inactive”.
For Cc1ccc(C(=O)c2cnc3cc4c(cc3c2S(=O)(=O)c2ccccc2)OCCO4)cc1, the Potency was inconclusive [activator, partial curve, poor fit].
For Cc1nnc(Nc2ccc3c(c2)ncn3C)c2ccccc12, the Potency was “inactive”.
In the case of Cc1cc2sc3nc(=O)n(-c4ccccc4)c(=O)n3c2cc1C, the Potency is reported as inconclusive [activator, full curve, poor fit].
With Cc1ccn2c(C(=O)N/N=C\c3cccs3)c(C)nc2c1 the Potency was “inactive”.
For O=C1C2C3C=CC(CC3)C2C(=O)N1/N=C/c1ccc(O)c(O)c1 (centres undefined), the Potency was inconclusive [activator, single point].
In the case of CCCCCCOC(=O)c1ccc(N)cc1, the Potency is reported as inconclusive [activator, partial curve, poor fit].
In the case of c1ccc(Cn2cc(-c3ccccc3)cn2)cc1, the Potency is reported as inconclusive [activator, partial curve, poor fit].
With O=C(CCc1nc(-c2ccc(Cl)cc2)no1)NC1CCCC1 the Potency was “inactive”.
With COc1ccc(S(=O)(=O)NCc2cccnc2)cc1C the Potency was inconclusive [activator, single point].
In the case of CC(C)c1ccccc1NC(=O)Cn1c(/C=C/c2ccccc2)nc2ccccc21, the Potency is reported as “inactive”.
For COc1ccc(OC)c(NC(=O)CN2C(=O)CSc3ccc(S(=O)(=O)N4CCCC4)cc32)c1, the Potency was “inactive”.
With N=C1S/C(=C\c2ccc(-c3cccc(Cl)c3)o2)C(=O)N1c1nccs1 the Potency was inconclusive [activator, partial curve, poor fit].
For CCOc1ccccc1C(=O)Nc1ccccc1C(N)=O, the Potency was “inactive”.
With COc1cccc(NC(=O)c2cccs2)c1 the Potency was inconclusive [activator, partial curve, poor fit].
With O=C(CCS(=O)(=O)c1ccc(F)cc1)Nc1nnc(-c2ccco2)o1 the Potency was inconclusive [activator, partial curve, poor fit].
With COc1ccc(C(=O)N/N=C/c2ccccc2OC(=O)c2ccccc2)cc1 the Potency was inconclusive [activator, full curve, poor fit].
In the case of FC(F)Oc1ccc(NC(=S)NCc2ccccc2)cc1, the Potency is reported as “inactive”.
With COc1ccc(N2CCN(C(CNC(=O)C(=O)NCCCO)c3ccco3)CC2)cc1 (centres undefined) the Potency was “inactive”.
With Cc1ccc(N/N=C2\CC(=O)c3ccccc32)cc1Cl the Potency was “inactive”.
For COC(=O)c1ccc(/C=C2/SC(=S)N(CCCC(=O)Nc3ccccn3)C2=O)cc1, the Potency was “inactive”.
For COc1cccc2cc(C(=O)OCC(=O)NC3CCCC(C)C3C)c(=O)oc12 (centres undefined), the Potency was inconclusive [activator, full curve, poor fit].
In the case of CCC(=O)N(CC)c1nc(-c2ccc(OC)cc2)cs1, the Potency is reported as inconclusive [activator, full curve, poor fit].
For CC(/C=N/NC(=O)c1cccnc1)=C\c1ccccc1, the Potency was inconclusive [activator, partial curve, poor fit].
With COc1cccc(O)c1CN1CCC(n2nccc2NC(=O)c2ccc3c(c2)OCO3)CC1 the Potency was inconclusive [activator, single point].
With CCOc1ccc(-c2nnc(N3CCCCC3)c3ccccc23)cc1 the Potency was “inactive”.
With Nc1ccccc1SCc1csc(-c2ccc(Cl)cc2)n1 the Potency was “inactive”.
In the case of C/C(N)=C(/C#N)C(=O)COC(=O)c1cc2c(s1)CCCC2, the Potency is reported as inconclusive [activator, partial curve, poor fit].
With Cc1ccc(OCc2n[nH]c(=S)n2Cc2ccccc2)cc1 the Potency was “inactive”.
For O=C(N/N=C/c1cc(Br)c(O)c(Br)c1O)c1ccc2c(c1)OCCO2, the Potency was inconclusive [activator, partial curve, poor fit].
In the case of CN1C(=O)/C(=C\C(=O)c2cccs2)c2ccccc21, the Potency is reported as “inactive”.
In the case of CC(CNC(=O)CCc1nnc(CCC2CCCCC2)o1)c1ccccc1 (centres undefined), the Potency is reported as “inactive”.
For CCOC(=O)c1cc(C)sc1NC(=S)Nc1ccccc1, the Potency was “inactive”.
For O=C(Nc1cccc(Cl)c1N1CCOCC1)c1ccc([N+](=O)[O-])o1, the Potency was “inactive”.
In the case of CCN(CC)c1ccc(/C=N/NC(=O)c2ccco2)cc1, the Potency is reported as inconclusive [activator, partial curve, poor fit].
For COc1ccc2cc(C(N)=O)/c(=N/NC(=O)c3ccco3)oc2c1, the Potency was inconclusive [activator, full curve, poor fit].
With Cc1ccc(C)c(NC(=O)c2ccc3c(=O)n4c(nc3c2)CCC4)c1 the Potency was inconclusive [activator, full curve, poor fit].
For O=C(COc1ccccc1Cl)N1CCc2ccccc2C1, the Potency was inconclusive [activator, single point].
In the case of Cc1ccc(C(=O)NCC(c2cccs2)N(C)C)cc1S(=O)(=O)N1CCOCC1 (centres undefined), the Potency is reported as inconclusive [activator, single point].
In the case of CCCCN(C)S(=O)(=O)c1ccc(C(=O)N=c2sc3cc(NC(C)=O)ccc3n2C)cc1, the Potency is reported as “inactive”.
In the case of Nc1nonc1-c1noc(-c2ccccc2)n1, the Potency is reported as inconclusive [activator, partial curve, poor fit].
In the case of COc1cccc(CSc2nnc(-c3ccco3)n2C)c1, the Potency is reported as inconclusive [activator, single point].
In the case of O=C(N/N=C/c1c(O)ccc2ccccc12)c1cccnc1, the Potency is reported as inconclusive [activator, partial curve, poor fit].
With Cc1cc2nc3n(c2cc1C)CC1CC(C(=O)NCc2ccccc2)N(C)C31 (centres undefined) the Potency was “inactive”.
For Cc1ccc(NC(=O)N2CCC(c3ccccc3)C2)cc1C (centres undefined), the Potency was “inactive”.
For COc1ccc2sc(NCc3ccccc3)nc2c1, the Potency was inconclusive [activator, partial curve, poor fit].
For O=S(=O)(Nc1ccc(Cl)cn1)c1ccc(F)cc1, the Potency was inconclusive [activator, partial curve, poor fit].
